Measured values reported in PubChem BioAssay AID588692 (Broad Institute, 2011).
In all, about 360,000 compounds went through this assay and about 830 (0.23%) were called active. The inconclusive results got no clear call from the source; some entries with a clear call stand among them for comparison.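 Rule for the calls: active = mean luciferase reporter signal, scaled so untreated is 0 and the glycosylation-blocking control 100, at or above a set limit in every replicate; inconclusive = mean reaches the limit but not every replicate does; inactive = mean below the limit.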

Assay: increase of ERlucT glycosylation luciferase signal, primary screen, N-linked glycosylation inhibitor project, D54 ERlucT cells, luminescence, set 2 (AID 588692);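 note: luciferase carries N-glycosylation sites so blocking glycosylation raises the light; 0% = median of neutral control wells and 100% = median of 100 nM tunicamycin wells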
Conditions: 24 h, at 12.5 µM, stronger effect = higher value, percent of 100 nM tunicamycin response

Reporter increase, inactive:
O=c1[nH]c2cc(Br)cnc2nc1/C=C(\O)c1ccc(F)cc1 1.3%, CCCN1CCC(=O)N([C@H](CSc2ccccc2)Cc2ccccc2)CC1 -2.69%, COc1ccc(Cl)cc1N1C(=O)/C(=C\c2sccc2C)N=C1SCC(=O)NC1CC1 -2.4%, Cc1ccccc1C(=O)N1CCN(c2ccccn2)CC1 -0.353%, O=C(/C=C/c1ccccc1)NC(NC(=S)Nc1ccc(Cl)cc1)C(Cl)(Cl)Cl (configuration not stated) 7.64%, O=C1CCCCN1CCCC(=O)N1CCCC(Nc2ccccc2)C1 (configuration not stated) 1.23%, O=C(O)c1ccccc1N/N=C/c1cc(Br)cc(Br)c1O -6.25%, Cc1c(Cc2ccccc2)c(=O)oc2cc(OCC(=O)N3CCC(C(=O)O)CC3)ccc12 1.47%, Cn1c(=O)c2cn3c(c2n(C)c1=O)C(c1ccccc1)CC(c1ccccc1)=N3 (configuration not stated) -5.9%, Nc1ncnc2c1ncn2C1OC(CO)C2OC21 (configuration not stated) 0.302%, Cc1c(C=O)c2ccccn2c1C(=O)c1ccc(Cl)c([N+](=O)[O-])c1 0.62%, CCC1(CC)NC(=O)N(CC(=O)Nc2ccc(OCc3ccccc3)cc2)C1=O -1.41%, COCCCNC(=O)N1c2ccccc2Sc2ccccc21 -1.03%, Fc1ccccc1CNc1ccc(Cl)cc1 -3.71%, Cc1csc(SCC(=O)Nc2nccs2)n1 -1.02%

Reporter increase, active:
Oc1cc(Nc2ccccc2)cc2cccnc12 37.6%, O=C(CCl)Nc1cccc(S(=O)(=O)NC2=NCCC2)c1 60.2%, O=C(/C=C/Sc1ccccc1)c1ccccc1 33.3%, CCN(CC)CCn1c2ccccc2c2nc3ccc([N+](=O)[O-])cc3cc21 70.2%, O=C1CCCN1CCCNc1nc(NCc2ccccc2)nc2ccsc12 38%, COc1ccccc1CCNCc1ccc(OC)c(OCc2ccccc2)c1 34.4%, O=c1[nH]c(=O)n([C@H]2C[C@H](O)[C@@H](CO)O2)cc1I 55.1%, CCOc1ccc(N2C(=O)Nc3ccccc3C2(O)C(=O)N2CCN(c3ccccn3)CC2)cc1 (configuration not stated) 27.2%, COc1ccc(C(=O)CSc2nn3c(=O)c(C(C)(C)C)nnc3s2)cc1 33.9%, CN1C(=O)c2cccc3c(S(=O)(=O)Nc4ccccn4)ccc1c23 40.8%, Cc1[nH][nH]c(=O)c1C(c1ccc(-c2ccc(Cl)c(Cl)c2)o1)c1c(C)[nH][nH]c1=O 46.5%, O=C(CNC(=O)c1ccco1)N=Nc1c(O)n(CCc2ccccc2)c2ccccc12 34%

Reporter increase, inconclusive:
Cc1ccc(/C=N/NC(=O)c2sccc2OCc2ccc(F)cc2)cc1 28.9%, CN(C)CCNc1ccc2ncn3c4ccc(O)cc4c(=O)c1c23 36.2%, O=C(O)c1cc(=O)c2c(OCC(O)COc3cccc4oc(C(=O)O)cc(=O)c34)cccc2o1 35.8%, O=C(NCc1ccccc1)c1c(Cl)nc(Cl)c(Cl)c1Cl 26.7%, C(=C\c1ccccc1)/CSc1nnc(-c2ccccc2)n1Cc1ccco1 25.2%, N#Cc1c(-c2ccccc2)c(-c2ccccc2)nn(CC(=O)NNC(=O)Nc2ccccc2)c1=O 29.1%, C=CCOc1ccc2nc(NC(=O)OC)[nH]c2c1 28.6%, O=C(CC1Sc2ccccc2NC1=O)NNc1cccc(Cl)c1Cl (configuration not stated) 32.4%, O=C(NCc1ccc(F)c(F)c1)C1Cc2c(-c3ccc4c(c3)OCO4)ccnc2O1 (configuration not stated) 26.4%, Cc1ccc(NC(=S)NC(NC(=O)Cc2cccc3ccccc23)C(Cl)(Cl)Cl)cc1 (configuration not stated) 51.4%, COc1ccc(-c2ccc(CCC(=O)O)n2-c2ccccc2OC)cc1 25.1%, COc1ccc(/C=C2\CC/C(=C\c3ccc(OC)c(OC)c3)C2=O)cc1OC 25.7%, COc1ccc(-c2cc(NC=O)c3ncc(-c4cccc(C(F)(F)F)c4)n3c2)cc1OC 80.2%, COc1ccc2noc3c2c1C(=O)c1ccccc1-3 33.1%, COc1cccc(Nc2nc(N)nc(-c3oc4ccccc4c3C)n2)c1 27%, COc1cc(C(=O)Nc2ccc3c(c2)ncn3C)cc(OC)c1OC 26.1%, COc1cc(OC)c(C2=NOC(C(=O)NCc3cccs3)C2)cc1Cl (configuration not stated) 26.4%, Nc1cc2c3c(cccc3c1)C(=O)N(CCN1CCCC1)C2=O 27%, COc1ccc(/C=C/C(=O)c2ccc3c4c(cccc24)CC3)cc1 25.1%, CCOC(=O)C(CC)(CC)C(=O)/C=C/c1cccc(Br)c1 29.8%, O=C(O)CCn1cc(/C=C/C(=O)c2ccc(Cl)cc2)c(-c2ccc(Br)cc2)n1 26%, Cc1ccc(C(=O)Nc2ccc(C(=O)/C=C/c3cccs3)cc2)cc1 27%, N#CC1=C(N)OC2=C(CCc3ccccc32)C1c1ccccc1Cl (configuration not stated) 26.1%, CCOC(=O)C(C)Oc1cccc2c(=O)n(CC(=O)NCc3ccc(F)cc3)ccc12 (configuration not stated) 26.9%, Cc1ccc(SCC(=O)Nc2ccc(-c3nc4ccccc4[nH]3)cc2)cc1 27.8%, CCOC(=O)/C=c1/s/c(=C\c2c(OC)ccc3ccccc23)c(=O)n1CC(=O)NCC1CCCO1 (configuration not stated) 25.3%, CCCc1ccc(OCc2ccc(C(=O)N/N=C/c3cccc([N+](=O)[O-])c3)o2)c(OC)c1 43.7%, O=C(c1cccs1)N1CCC(c2nc3c(nnn3Cc3cccc(Cl)c3)c(=O)[nH]2)CC1 35.9%, Cc1ccc(C(=O)c2coc3c2C(=O)C(=O)c2ccccc2-3)cc1 34.9%, OC1CCCN(Cc2c3ccccc3cc3ccccc23)C1 (configuration not stated) 31.1%
